From the supplement of paper PMC8728848
Some of the results follow.

Assays:
Test in all cases: glycan array binding signal (z-score within array); higher = stronger binding
Conditions in all cases: glycan notation: IUPAC condensed, linker removed
[1] = target: Neu5Ac(a2-6)GalNAc(b1-4)GlcNAc
Procedure, shortened: (§1)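 Columns mapping to the same glycan were averaged after glycan names were converted to IUPAC-condensed notation. The data come from 3228 arrays in the Consortium for Functional Glycomics database, limited to those with an available protein sequence. Binding is reported as a within-array Z-score averaged across arrays of one protein sequence and across linkers.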

[2] = target: Neu5Ac(a2-6)GalNAc(b1-4)GlcNAc6S
Procedure, shortened: as §1

[3] = target: Neu5Ac(a2-6)GlcNAc(b1-4)GlcNAc
Procedure, shortened: as §1

[4] = target: Neu5Ac(a2-6)GlcNAc(b1-4)GlcNAc(b1-4)GlcNAc
Procedure, shortened: as §1

Neu5Ac(a2-8)Neu5Ac = target: Neu5Ac(a2-8)Neu5Ac
Procedure, shortened: as §1

[5] = target: Neu5Ac(a2-8)Neu5Ac(a2-3)Gal(b1-3)GalNAc(b1-4)[Neu5Ac(a2-3)]Gal(b1-4)Glc
Procedure, shortened: as §1

[6] = target: Neu5Ac(a2-8)Neu5Ac(a2-3)Gal(b1-3)GalNAc(b1-4)[Neu5Ac(a2-8)Neu5Ac(a2-3)]Gal(b1-4)Glc
Procedure, shortened: as §1

[7] = target: Neu5Ac(a2-8)Neu5Ac(a2-3)Gal(b1-4)Glc
Procedure, shortened: as §1

[8] = target: Neu5Ac(a2-8)Neu5Ac(a2-3)Gal(b1-4)GlcNAc
Procedure, shortened: as §1

[9] = target: Neu5Ac(a2-8)Neu5Ac(a2-3)[Gal(b1-3)GalNAc(b1-4)]Gal(b1-4)Glc
Procedure, shortened: as §1

[10] = target: Neu5Ac(a2-8)Neu5Ac(a2-3)[GalNAc(b1-4)]Gal(b1-4)Glc
Procedure, shortened: as §1

[11] = target: Neu5Ac(a2-8)Neu5Ac(a2-8)Neu5Ac
Procedure, shortened: as §1

[12] = target: Neu5Ac(a2-8)Neu5Ac(a2-8)Neu5Ac(a2-3)Gal(b1-4)Glc
Procedure, shortened: as §1

[13] = target: Neu5Ac(a2-8)Neu5Ac(a2-8)Neu5Ac(a2-3)[Gal(b1-3)GalNAc(b1-4)]Gal(b1-4)Glc
Procedure, shortened: as §1

[14] = target: Neu5Ac(a2-8)Neu5Ac(a2-8)Neu5Ac(a2-3)[GalNAc(b1-4)]Gal(b1-4)Glc
Procedure, shortened: as §1

[15] = target: Neu5Ac(a2-8)Neu5Ac(a2-8)Neu5Ac(a2-8)Neu5Ac(a2-3)[GalNAc(b1-4)]Gal(b1-4)Glc
Procedure, shortened: as §1

[16] = target: Neu5Ac(a2-8)Neu5Gc(a2-3)Gal(b1-4)GlcNAc
Procedure, shortened: as §1

[17] = target: Neu5Ac(b2-6)Gal(b1-4)GlcNAc
Procedure, shortened: as §1

Neu5Ac(b2-6)GalNAc = target: Neu5Ac(b2-6)GalNAc
Procedure, shortened: as §1

[18] = target: Neu5Ac9Ac(a2-3)Gal(b1-3)GlcNAc
Procedure, shortened: as §1

[19] = target: Neu5Ac9Ac(a2-3)Gal(b1-4)GlcNAc
Procedure, shortened: as §1

[20] = target: Neu5Ac9Ac(a2-6)Gal(b1-4)GlcNAc
Procedure, shortened: as §1

[21] = target: Neu5Gc(a2-3)Gal(b1-3)GlcNAc
Procedure, shortened: as §1

[22] = target: Neu5Gc(a2-3)Gal(b1-3)[Fuc(a1-4)]GlcNAc
Procedure, shortened: as §1

Neu5Gc(a2-3)Gal(b1-4)Glc = target: Neu5Gc(a2-3)Gal(b1-4)Glc
Procedure, shortened: as §1

[23] = target: Neu5Gc(a2-3)Gal(b1-4)GlcNAc
Procedure, shortened: as §1

[24] = target: Neu5Gc(a2-3)Gal(b1-4)GlcNAc(b1-3)Gal(b1-4)GlcNAc(b1-2)Man(a1-3)[Neu5Gc(a2-3)Gal(b1-4)GlcNAc(b1-3)Gal(b1-4)GlcNAc(b1-2)Man(a1-6)]Man(b1-4)GlcNAc(b1-4)GlcNAc
Procedure, shortened: as §1

[25] = target: Neu5Gc(a2-3)Gal(b1-4)[Fuc(a1-3)]GlcNAc
Procedure, shortened: as §1

[26] = target: Neu5Gc(a2-6)Gal(b1-4)GlcNAc
Procedure, shortened: as §1

Neu5Gc(a2-6)GalNAc = target: Neu5Gc(a2-6)GalNAc
Procedure, shortened: as §1

[27] = target: Neu5Gc(a2-8)Neu5Ac(a2-3)Gal(b1-4)GlcNAc
Procedure, shortened: as §1

[28] = target: Neu5Gc(a2-8)Neu5Gc(a2-3)Gal(b1-4)GlcNAc
Procedure, shortened: as §1

[29] = target: Neu5Gc(a2-8)Neu5Gc(a2-3)Gal(b1-4)GlcNAc(b1-3)Gal(b1-4)GlcNAc
Procedure, shortened: as §1

[30] = target: Neu5Gc(a2-8)Neu5Gc(a2-6)Gal(b1-4)GlcNAc
Procedure, shortened: as §1

[31] = target: Neu5Gc(b2-6)Gal(b1-4)GlcNAc
Procedure, shortened: as §1

B1: SSR1 (Sclerotium rolfsii), A0A0M3KL30 (protein)
chain: TYKITVRVYQTNPDAFFHPVEKTVWKYANGGTWTITDDQHVLTMGGSGTSGTLRFHADNGESFTATFGVHNYKRWCDIVTNLAADETGMVINQQYYSQKNREEARERQLSNYQVKNAKGRNFQIVYTEAEGNDLHANLIIG
glycan array binding signal (z-score) [1]: -0.351 | glycan array binding signal (z-score) [2]: -0.342 | glycan array binding signal (z-score) [3]: -0.326 | glycan array binding signal (z-score) [4]: -0.352 | glycan array binding signal (z-score) (Neu5Ac(a2-8)Neu5Ac): -0.338 | glycan array binding signal (z-score) [5]: -0.34 | glycan array binding signal (z-score) [6]: -0.293 | glycan array binding signal (z-score) [7]: -0.338 | glycan array binding signal (z-score) [8]: -0.35 | glycan array binding signal (z-score) [9]: -0.352 | glycan array binding signal (z-score) [10]: -0.337 | glycan array binding signal (z-score) [11]: -0.329 | glycan array binding signal (z-score) [12]: -0.331 | glycan array binding signal (z-score) [13]: -0.327 | glycan array binding signal (z-score) [14]: -0.32 | glycan array binding signal (z-score) [15]: -0.334 | glycan array binding signal (z-score) [16]: -0.342 | glycan array binding signal (z-score) [17]: -0.34 | glycan array binding signal (z-score) (Neu5Ac(b2-6)GalNAc): -0.328 | glycan array binding signal (z-score) [18]: -0.343 | glycan array binding signal (z-score) [19]: -0.27 | glycan array binding signal (z-score) [20]: -0.321 | glycan array binding signal (z-score) [21]: -0.329 | glycan array binding signal (z-score) [22]: -0.332 | glycan array binding signal (z-score) (Neu5Gc(a2-3)Gal(b1-4)Glc): -0.278 | glycan array binding signal (z-score) [23]: -0.352 | glycan array binding signal (z-score) [24]: -0.334 | glycan array binding signal (z-score) [25]: -0.316 | glycan array binding signal (z-score) [26]: -0.329 | glycan array binding signal (z-score) (Neu5Gc(a2-6)GalNAc): -0.318 | glycan array binding signal (z-score) [27]: -0.34 | glycan array binding signal (z-score) [28]: -0.333 | glycan array binding signal (z-score) [29]: -0.344 | glycan array binding signal (z-score) [30]: -0.349 | glycan array binding signal (z-score) [31]: -0.308
